Over roughly 33,000 sequences, “E-score (-0.5 to 0.5)” has its median near -0.017; the highest 2% begin near 0.3. Some of the results follow.
These sequences were tested against T1, Sut1 (UniProt P53032) (assay: PBM E-score (8-mer binding enrichment) (E-score (-0.5 to 0.5)); higher = stronger / more preferred TF binding; most listed sequences are background and not binding sites). Settings: protein concentration: 200 nM; construct: GST-full length.
T1 sequence: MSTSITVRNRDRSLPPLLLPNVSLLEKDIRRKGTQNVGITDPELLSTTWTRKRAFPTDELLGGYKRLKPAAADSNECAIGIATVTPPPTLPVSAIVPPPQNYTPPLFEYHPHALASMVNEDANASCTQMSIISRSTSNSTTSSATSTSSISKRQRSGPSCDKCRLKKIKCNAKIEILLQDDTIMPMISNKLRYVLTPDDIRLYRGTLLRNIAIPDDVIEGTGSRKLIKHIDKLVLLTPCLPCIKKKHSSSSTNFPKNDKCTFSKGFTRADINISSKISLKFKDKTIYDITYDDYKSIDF
Outline: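 Masliner-normalised scans of fluorescent anti-GST signal were the basis for scoring. That signal came from GST-tagged yeast transcription factors applied at about 100-200 nM to double-stranded universal all-10-mer Agilent arrays on fresh or once-stripped slides. Each ungapped eight-base word, pooled with its reverse complement, received an E-score from the Universal PBM Analysis Suite.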

Sequence	PBM E-score
GGTACTGA	-0.146
ATGTGCGG	-0.217
ACTATTCC	0.168
GAGTCGCC	-0.166
GGCACTAC	-0.283
CGATTTAG	0.073
GTTCGTTA	0.0988
GCGCTAAA	0.0525
AAGTCGGT	0.0852
CCCTTGGC	-0.202
GTCTGGGA	-0.296
AAATAGAA	0.173
CGAGTAAA	0.125
GGGTAACC	-0.219
AAATATTC	0.207
CTAGGCTA	-0.0601
AGCGGCAC	-0.257
AATCGTAT	0.16
CATGCAGA	-0.15
AGGTGTAG	-0.105
GATATTAC	0.297
AGCGGTGC	-0.0174
CGCGTTTC	-0.0399
CTATACAC	-0.0238
CCTGCCAA	-0.192

Sequence	PBM E-score
AGAGGACG	0.0629
CTACTTGC	-0.12
TATCTCCA	0.191
AGTGCTAG	-0.0637
ACGCTTGC	-0.218
AAAGACGC	0.0162
ACCCCGAA	0.332
AAGTCCTA	0.126
AAACAGGG	-0.136
ACTACCCC	-0.101
ACGATACA	0.0488
GTGAACAA	0.0216
AATCTGTC	0.133
ATGCGTTC	-0.039
AACTAGCT	-0.0237
GAACGGCC	0.00745
ATCGGAGA	0.416
TGTAAAAA	0.235
AACGCTGA	-0.0906
CAGGATGA	-0.163
CAGCGGCG	0.00849
CCTATCAA	0.111
CGCAGGAA	-0.166
TACTTAAA	0.171
CCTAGAAA	0.184

Sequence	PBM E-score
AGCAAAAG	-0.0977
CTCGATAC	0.142
AAGTGTAT	0.0641
AGTGCACG	-0.0643
CGATTGCC	-0.0206
CGCCGCAA	0.117
CGCTCCTA	-0.0375
ACTTGACT	0.0376
ATCGCGTC	-0.00961
AGGTTTTA	0.0564
CAATATGC	-0.0188
ACCAGTTG	0.0846
AACTCTAT	0.174
AAATTCGT	0.161
CTAGTCTA	-0.131
TCCCTGAA	-0.0211
AATCTTTA	0.214
ACTACTAA	0.114
CCCGGTAA	0.0833
CGTGTAAA	-0.0005
AAAAGCTC	0.163
CGCCACGC	-0.236
CCTTGGTC	-0.102
CTATAGAG	0.00768
AACCAGGA	-0.0425

Sequence	PBM E-score
CCTAGACC	-0.122
CTACCATA	0.035
GTGACCAC	-0.138
TAGCAAAA	0.232
CCCCCCAA	-0.311
GAGGAACA	-0.0116
CCCGTGGA	-0.19
GCGCCTAC	0.00826
CTGTGACC	-0.246
CCGCCGTA	0.0395
ACACGCAT	0.0295
CACCAAAC	-0.0324
ATGCGCTG	-0.121
ATTACTTG	0.0873
GATCCTTA	-0.0251
GGGTGGGA	-0.222
CTGGATCC	0.0806
AGAAGGCG	-0.0893
GAACTCTC	0.113
AATACGGT	-0.0683
GAACCTCA	-0.164
ACTGGTGG	-0.258
GGGTCGGA	0.292
CTATTACA	0.147
AAGGGTCC	-0.099

Sequence	PBM E-score
CGAGTGTC	-0.0583
GTGGACAA	0.206
AACGTCCC	-0.268
TAAGCCCA	-0.058
AAAGGAGC	-0.0321
CACGCTAC	-0.102
GAAGTACA	0.0804
CGATCGCC	0.0435
CCAGCTAC	-0.241
ACTAGCCA	-0.047
AAGACTCC	0.178
AGCGCCTA	0.0529
CAGCTTTA	0.123
CGGGTGTC	-0.0842
GGGTTTCA	0.0794
GCCGGATA	0.0859
CGCGCTAC	0.0565
GGTCCCGA	0.093
AAACTTGG	0.019
ATAGCCTC	-0.092
TGTCAACA	-0.0993
ACTCGGTG	-0.0621
CAGACAAC	0.0409
ATGTAACC	0.0203
CCTACTGA	-0.128

Sequence	PBM E-score
CTCTTTCC	-0.0939
ACACGGAG	0.409
AACTACAA	0.251
AGTTCCGG	0.214
GCCTTACC	-0.211
TGAGTCCA	-0.0909
GAAGCCTC	-0.0682
AATGATGT	0.212
GGTGCGGA	0.189
GCACCGTA	0.0972
ATTCGGAA	0.262
ACGAACCT	0.108
CGCACAAA	-0.0299
ATCCAGCG	-0.116
AGGGTACT	-0.181
CTAGTATA	0.137
AGACTCAT	-0.0488
TAGACATA	0.125
ACTCAGAG	-0.0771
CGCGCTTC	-0.0484
CGGCTCCC	-0.173
ATTCGGGG	0.244
ATAAGCTG	-0.14
CACCTGAC	-0.187
CAAGTGGC	-0.0471

Sequence	PBM E-score
TCTCAAAA	0.078
GCCAAGAA	-0.0155
GGTTAGGA	-0.141
CGGAGCGA	0.325
AACCATAT	0.166
ATCGCGCC	-0.101
GGAGTAAA	0.333
AACAGCTT	-0.107
AAAGATGC	-0.0643
ATACCGAT	0.116
TAAGAAGA	0.221
TACCTTGA	0.0116
AATTATAA	0.335
CGACTCCC	-0.211
ACCATACT	0.0355
CCACGCAG	-0.25
GCGAACCA	0.128
ATGAAAGG	-0.0134
GTATAAAC	0.227
AAGTGCGC	0.0556
GAGGCGCA	-0.164
CATAAGAA	0.23

Reference: the supplement of paper PMC3334620
